Test results taken from the supplement of paper PMC3334620.
The full ranking holds about 33,000 sequences; the median of “E-score (-0.5 to 0.5)” is about -0.012, and the highest 2% start at about 0.29. The list shows a part of the results.

These sequences were tested against T1, Ybr033w (UniProt P38073) (assay: PBM E-score (8-mer binding enrichment) (E-score (-0.5 to 0.5)); higher = stronger / more preferred TF binding; most listed sequences are background and not binding sites). Settings: protein concentration: 200 nM; construct: GST-full length.
T1 sequence: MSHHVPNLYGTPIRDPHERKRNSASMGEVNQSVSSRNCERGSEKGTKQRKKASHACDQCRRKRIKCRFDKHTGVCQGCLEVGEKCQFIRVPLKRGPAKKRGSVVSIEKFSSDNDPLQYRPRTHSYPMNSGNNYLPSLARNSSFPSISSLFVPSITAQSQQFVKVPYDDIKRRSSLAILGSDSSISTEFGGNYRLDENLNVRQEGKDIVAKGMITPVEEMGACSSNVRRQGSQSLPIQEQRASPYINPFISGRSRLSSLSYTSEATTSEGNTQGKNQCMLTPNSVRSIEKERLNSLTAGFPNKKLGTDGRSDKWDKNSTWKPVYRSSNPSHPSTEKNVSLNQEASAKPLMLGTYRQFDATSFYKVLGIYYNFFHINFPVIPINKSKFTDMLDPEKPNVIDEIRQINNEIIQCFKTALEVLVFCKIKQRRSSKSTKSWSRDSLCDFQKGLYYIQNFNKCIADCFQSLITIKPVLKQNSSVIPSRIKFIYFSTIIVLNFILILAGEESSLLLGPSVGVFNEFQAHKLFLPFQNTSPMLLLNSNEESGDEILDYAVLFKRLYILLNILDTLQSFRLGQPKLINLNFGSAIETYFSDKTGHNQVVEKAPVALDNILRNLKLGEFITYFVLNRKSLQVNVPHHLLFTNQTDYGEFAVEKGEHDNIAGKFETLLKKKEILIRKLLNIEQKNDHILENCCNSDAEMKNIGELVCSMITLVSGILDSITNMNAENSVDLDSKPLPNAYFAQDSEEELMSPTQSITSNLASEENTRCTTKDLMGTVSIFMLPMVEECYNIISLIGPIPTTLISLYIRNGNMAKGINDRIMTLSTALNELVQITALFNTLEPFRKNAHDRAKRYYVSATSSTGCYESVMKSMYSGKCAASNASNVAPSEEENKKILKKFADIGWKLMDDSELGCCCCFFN
Summary of the method: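 The E-score, a modified Wilcoxon-Mann-Whitney statistic, was computed by the Universal PBM Analysis Suite for every ungapped eight-base word pooled with its reverse complement. Scans behind it were normalised with masliner after bound GST-tagged yeast transcription factors were detected with fluorescent anti-GST. The proteins, at about 100-200 nM, had been applied to universal all-10-mer Agilent arrays made double-stranded by primer extension.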

Sequence | PBM E-score
CACAGAGA | 0.0183
AAGCCCAA | -0.00409
CAACCGGA | 0.0416
CAATCTAG | 0.217
CGTGTACA | 0.18
CACTTTAA | 0.233
CTAATTTA | 0.257
CCTAGACG | -0.111
CACTGCAG | -0.0371
ATACCACG | 0.0729
AGATTCGC | 0.11
ATGGCGTG | -0.0302
GAAAGCGC | -0.0759
GAACCTTC | -0.0145
GTAAAAGA | 0.155
ACCAAAGT | 0.0666
ACAGCTGG | -0.228
TTCCTCAA | 0.0682
AACCAGTG | -0.164
CGAAGCAG | -0.125
GAGTACTC | -0.0318
GCAGTGTA | -0.0047
TGGTGGAA | 0.137
AGGAGCCA | -0.0808
AACACTCA | 0.13

Sequence | PBM E-score
ACAGGCCG | -0.216
AGATACTC | 0.0315
ACTGACGA | -0.0835
AGTCTCCG | 0.0071
GAAAAATA | 0.397
AAGGACAT | -0.0316
GCTGCCAC | -0.162
ACCAGCTC | -0.0828
CGTCAACG | -0.0824
TAAGTTAA | 0.206
ACATCGCG | 0.0198
CCTGCCGC | -0.318
TCGGTAAA | 0.0329
GATTGTGC | 0.125
ACCTTTTA | -0.0294
ATCCTTTG | 0.0379
CCGCCGCG | -0.155
CACTTTTC | 0.255
GTATGCAC | -0.139
GATCGGCC | -0.241
CCTGGATA | -0.119
AAAATCCT | 0.0338
ATGCCCGG | -0.0338
CCAAAAAG | 0.109
GTGTTATA | 0.142

Sequence | PBM E-score
ACCACGGG | -0.208
AATTTTAC | 0.282
CCCGCCGA | -0.211
ACATTAAG | 0.278
ACCGGTTA | -0.0148
CCCAAGGC | -0.126
GGAGGCTA | -0.252
GTTGGGTA | 0.0529
ATAATCGC | 0.065
CAGATGCA | -0.275
AACCACGA | 0.0821
CATAACCC | -0.0807
AGAAACAA | 0.258
GAATTGTA | 0.215
CTTGCAAA | 0.0795
CCTTAAAG | 0.0759
CCGTGGCG | -0.244
ATACAGAA | 0.137
CATGGCGG | -0.291
CATTTAGG | -0.143
AGCTGGTG | -0.141
GCTTCGGA | 0.119
CTGCAGAA | -0.0198
CCGTTCGA | 0.0178
CGCGGCTC | -0.13

Sequence | PBM E-score
CAAGTTCA | 0.183
GATTATGA | 0.198
GTCGCGGA | -0.162
CAAGCATA | -0.011
CTATAATA | 0.156
AGGGGTAT | -0.219
CACATCCA | 0.0566
GCATAGGC | -0.216
AACATAGC | 0.0451
ACGCCGTA | 0.0613
ACAACACT | 0.22
CCAAATAC | -0.0715
CTTGCAGA | -0.043
CTCGGAAA | 0.168
GGATGTTA | 0.0298
CCCTCTTA | -0.00358
CAACGTAC | 0.0636
AAGGCTTG | -0.12
ACTAAATA | 0.322
CCAGCGGA | -0.326
CGATAGCG | -0.0418
ACGCATGC | 0.113
AGGGTTCG | -0.257
TCCTTGAA | -0.0413
CCAGGTCC | -0.333

Sequence | PBM E-score
ACGGATAT | 0.192
TATTGACA | 0.00171
GTTATCTA | 0.171
CGACATCG | -0.191
ACAGCCCT | -0.179
CTCTCACC | -0.133
GACCAGCA | -0.114
AACACCGT | -0.231
GCCCCCCC | -0.428
AATTAGCT | 0.122
AGCGCGAA | 0.0642
CTGCGGAA | -0.117
GATATTCA | 0.12
CCGCACTC | 0.103
AAGTCTAC | 0.0377
AACAAGGT | 0.0196
ATAAATTC | 0.308
TACTCCCA | 0.0906
CCACACCC | -0.118
CATGATCG | 0.0156
GCCCCAGA | -0.197
CGCATATC | 0.19
CAGGCTAC | -0.131
CTGGTCAC | 0.0118
ACGTGGAC | -0.132

Sequence | PBM E-score
AGGAGTTG | -0.046
CAAAGCCC | -0.0974
ACCGGACA | -0.258
CGGCTAGA | -0.134
AACCTTCA | 0.0345
AAGCATAT | 0.0942
AGCCTACC | -0.0524
AATATACG | 0.0565
GCAATAAA | 0.187
CGTGTCGA | -0.0365
CATAACTC | 0.0871
CAGGCAAC | -0.0967
CGGAATCA | 0.104
CACGTATG | 0.0761
AAATGGAG | 0.126
GGCCTTCA | -0.137
AACCGACA | 0.108
CAATTTGG | 0.108
ACACGGGA | -0.182
CGTACCGC | -0.17
CTCCCACA | -0.139
GCTTGTCA | -0.0866
AACACTTC | 0.21
ATCGGCAC | -0.00252
CTATGGGC | -0.162

Sequence | PBM E-score
ACCACCCT | -0.184
GCCCGGGA | -0.0848
CCCCGCGC | -0.298
GTTAATCA | 0.277
ACGGGAGG | -0.258
CAACGAAA | 0.209
TCTTACAA | -0.00467
ATTAGGAC | -0.0862
GCACCAGC | -0.187
GTAAACTA | 0.219
GCCGCTCA | -0.195
CGGCCCTA | -0.113
GTGTTCCA | -0.0466
CCAAGTTC | 0.00648
AGAGGTGA | 0.0959
CTTAGTAC | 0.0947
GCACCAAA | 0.125
ATCCAGAC | 0.173
GAAAACAC | 0.131
ATGGAACG | -0.152
AGTCAACG | -0.167
AGTTAATC | 0.368
AGTTGCGG | 0.0698
ACAGTTAA | 0.244
AGCCGTGA | 0.0154

Sequence | PBM E-score
ACGCCCTA | -0.107
ATAATGTG | 0.159
ATCTGACG | -0.253
CGTATAAG | 0.0155
CGATTAAG | 0.27
CACCCTAG | -0.0297
AATAGATT | 0.265
ACGACAGC | 0.0111
AAGATACT | 0.0974
AATGTGGC | 0.0327
GCGAGCGA | -0.00447
ACCCTCAG | 0.0505
ATCGCATG | 0.109
AGTGAAAC | 0.11
CCCATATA | -0.0671
GGGACACA | -0.0718
CATTATGC | 0.0609
CCCATCCG | -0.162
ATATTCTC | 0.267
CATATGAC | 0.0313
GAGTTACA | 0.144
GCACTTCA | 0.0397
CGGATCTC | -0.125
CATCACCG | -0.204
GAGCCACC | -0.265

Sequence | PBM E-score
ATGCAAAA | 0.239
TCTGAAAA | 0.0719
CATATAAA | 0.174
CTCTCGGA | 0.104
CCTCGAAC | -0.101
AAGTCCAT | -0.0147
GACGCAAC | -0.0759
ATCCATCC | 0.00179
ACAAGGTC | -0.00044
AAGCGGAA | 0.0817
CATCATGC | -0.0129
GTAAGCCA | -0.121
ATTTCTTG | 0.198
CCCTGTAC | -0.151
CAACCCAC | -0.0291
AACCCAAT | 0.14
AATGGACA | 0.157
GCGGAGAA | 0.119
TGTTATAA | 0.19
